About 2,600 (0.72%) of roughly 360,000 compounds were called active. The shares of active, inactive and inconclusive entries below differ from those in the screen. Calls follow the shape of the dose curve; as a rule, active = well fitted inhibition curve with a large enough effect; inconclusive = small, poorly fitted or top-dose-only effect; inactive = no such curve, though single readings can be large or run the other way. A potency beside an inconclusive call is a rough fit, not a confirmed value.
Test: Primary qHTS for Inhibitors of ATXN expression; also: nearly all actives have a fitted effect of over 55% in size
Details: HEK-293 ATXN2-luciferase reporter, luminescence, 24 h; activity change, negative = inhibition: at 57 µM (top of the series)
How it was run: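 ATXN2-luciferase reporter cells (luciferase flanked by upstream and downstream ATXN2 gene portions) were treated 24 h at 37 °C with compounds at up to 57 uM. SteadyGlo luminescence gave expression; GF-AFC fluorescence gave viability.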
% is scaled to controls: 0 for no effect and ±100 for the full control effect; potency is read from the fitted curve at half-maximal effect; tags tell the direction and shape of the fitted curve.

Row | Compound | Potency | activity change, negative = inhibition
1 | Cc1ccc(C(=O)N/C(=C\c2ccc(-c3cccc([N+](=O)[O-])c3)o2)C(=O)NCCCN(C)C)cc1 | inconclusive: 28.2 µM [inhibitor, single point] | –
2 | CCCCCCN1C[C@@H](O)[C@H](n2cc(COC(=O)c3ccccc3)nn2)C[C@@H]1c1ccc(OC)cc1 | inactive | –
3 | O=C(COc1ccccc1)Nc1nc(-c2ccc(S(=O)(=O)N3CCOCC3)cc2)cs1 | inactive | –
4 | CC(C)(C)c1ccc2c(c1)OC(C(=O)N/N=C\c1ccccn1)CO2 (stereo unspecified) | inconclusive: 39.8 µM [inhibitor, single point] | –
5 | Cc1ccccc1Cn1c(C)c(C(=O)NCc2cccc(Cl)c2)sc1=O | inconclusive: 14.1 µM [inhibitor, partial curve, poor fit] | –
6 | O=C(N/N=C1/C(=O)c2cccc3cccc1c23)c1ccc(Cl)cc1 | inconclusive: 39.8 µM [inhibitor, single point] | –
7 | COc1ccc(OC(C)C(=O)NCc2nc(-c3ccc(Cl)cc3)no2)cc1 (stereo unspecified) | inconclusive: 15.8 µM [inhibitor, partial curve, poor fit] | –
8 | O=C(NCCOC(=O)Nc1cccc2ccccc12)OCc1ccccc1 | inactive | –
9 | Cc1ccc(-c2[nH]ncc2/C=N/n2c(COc3ccccc3C)nc3ccccc3c2=O)cc1 | active: 28.2 µM | –
10 | CCOc1ccc(S(=O)(=O)N2CCC(C(=O)NC3CC3)CC2)cc1C | inactive | –
11 | O=C(NCCc1ccccc1)c1ccc(CSc2nc3ccncc3n2Cc2ccccc2)cc1 | inactive | –
12 | C[C@@H](C(=O)NCc1ccccc1)[C@H]1C[C@]1(C)[C@H](NC(=O)OCc1ccccc1)c1ccccc1 | inconclusive: 35.5 µM [inhibitor, single point] | –
13 | O=[N+]([O-])c1ccc(S(=O)(=O)Nc2nc3ccccc3nc2Nc2ccccc2)cc1 | inconclusive: 25.1 µM [inhibitor, single point] | –
14 | CSc1ccccc1NC(=O)CN(C)C(C)C(=O)Nc1ccc(C#N)cc1 (stereo unspecified) | inconclusive: 6.7 µM [inhibitor, partial curve, poor fit] | –
15 | O=C(NC(c1ccccc1)c1ccsc1)C1CCN(Cc2ccc(Cl)c(Cl)c2)CC1 (stereo unspecified) | inactive | –
16 | O=C(Cn1nc(C(F)(F)F)c2c1CCCC2)Nc1ccc(Cl)cc1 | inconclusive: 39.8 µM [inhibitor, single point] | –
17 | O[C@H]1C[C@H](c2ccc(Cl)cc2)N(Cc2cccs2)C[C@@H]1n1cc(C2CC2)nn1 | inconclusive: 39.8 µM [inhibitor, single point] | –
18 | C#Cc1cccc(Nc2ncnc3cc(OCCOC)c(OCCOC)cc23)c1 | inconclusive: 24.3 µM [inhibitor, partial curve, poor fit] | –
19 | O=C(Cc1ccc(Cl)cc1)NCC(c1cccs1)S(=O)(=O)c1ccc(Cl)cc1 (stereo unspecified) | inconclusive: 25.1 µM [inhibitor, single point] | –
20 | CC(C)n1cc(CN2CCN(CCc3ccccc3)C(CCO)C2)cn1 (stereo unspecified) | inconclusive: 3.36 µM [inhibitor, full curve, poor fit] | –
21 | O=C(CSc1nnc(-c2ccccn2)n1Cc1ccco1)c1ccccc1 | inactive | –

Row | Compound | Potency | activity change, negative = inhibition
22 | COc1ccc(Cn2ccc3ccc(C(=O)NO)cc32)cc1 | inconclusive: 27.3 µM [inhibitor, single point] | –
23 | O=C(CCN1CCN(c2ccccc2)CC1)N/N=C/c1ccc([N+](=O)[O-])o1 | inconclusive: 37.7 µM [inhibitor, single point] | –
24 | Cc1nnc(N2CCCC(C(=O)NCc3ccc(OC(C)C)cc3)C2)c2nn(-c3ccccc3)c(C)c12 (stereo unspecified) | inconclusive: 31.6 µM [inhibitor, partial curve] | –
25 | CCOC(=O)c1c(NC(=O)COC(=O)Cn2c(C(F)(F)F)nc3ccccc32)sc(C)c1C | inconclusive: 31.6 µM [inhibitor, single point] | –
26 | CCOc1cc(/C=C\c2[nH]c(=O)[nH]c(=O)c2[N+](=O)[O-])ccc1OC(C)CC (stereo unspecified) | inconclusive: 31.6 µM [inhibitor, single point] | –
27 | Cc1nc2c(-c3ccccc3)c(C)[nH]n2c(=O)c1Cc1ccc(C(C)C)cc1 | inconclusive: 3.55 µM [inhibitor, partial curve, poor fit] | –
28 | COc1ccc(C(=O)N2CCc3ccc(NC(=O)c4ccccn4)cc3C2)cc1F | inconclusive: 39.8 µM [inhibitor, single point] | –
29 | CC1COCC(C)N1C1=C(Cl)C(=O)c2ccccc2C1=O (stereo unspecified) | inconclusive: 39.8 µM [inhibitor, single point] | –
30 | COc1ccccc1C(NC(C)=O)c1cc(Cl)c2cccnc2c1O (stereo unspecified) | – | inconclusive: -75.7% [inhibitor]
31 | COc1cc2[nH]c(=S)nc(NCCCOC(C)C)c2cc1OC | inconclusive: 39.8 µM [inhibitor, partial curve, poor fit] | –
32 | CN(C)NC(=S)NC1CCS(=O)(=O)C1 (stereo unspecified) | inactive | –
33 | CC(=O)c1ccc(NC(=O)CSc2ccc(-c3sc(C)nc3C)nn2)cc1 | inactive | –
34 | CC(O)(c1ccc(F)c(F)c1)c1nc(/C=C/c2ccc(C(F)(F)F)cc2)cs1 (stereo unspecified) | inconclusive: 39.8 µM [inhibitor, single point] | –
35 | CCOC(=O)C1CCN(C(=O)c2cc3ccc4ccc(C)[nH]c4c3n2)CC1 | inactive | –
36 | COc1ccc(CNS(=O)(=O)CCNC(=O)c2cccc(OC)c2)cc1 | inactive | –
37 | Cc1cc2c(cc(C(=O)N3CCC(C(=O)NC4CCCC4)CC3)n2Cc2c(F)cccc2Cl)o1 | inconclusive: 35.5 µM [inhibitor, single point] | –
38 | COc1ccccc1-c1cccc(-c2c(O)c3cc(C#N)c(Cl)cc3[nH]c2=O)c1 | inconclusive: 0.0157 µM [inhibitor, partial curve, poor fit] | –
39 | CC(NC1=CC(=O)c2cccnc2C1=O)C(O)c1ccccc1 (stereo unspecified) | inconclusive: 29.9 µM [inhibitor, partial curve, poor fit] | –
40 | O=C(/C=C/c1ccc(-c2ccccc2[N+](=O)[O-])o1)c1ccc(Br)cc1 | inconclusive: 28.2 µM [inhibitor, single point] | –
41 | CCOC(=O)c1c(C)[nH]c(N=Nc2ccc(C)cc2C)c1C | inactive | –

From PubChem BioAssay AID1745845 (National Center for Advancing Translational Sciences (NCATS), 2022)
